# From PMC4336329 (PLoS ONE, 2015)
# Among all 310,000 compounds or so, about 14,000 (4.5%) showed an effect of 50% or more. The effect is printed as a negative number. Some of the results follow.
# Molecular target: human ether-à-go-go-related gene (hERG) potassium channel (human, UniProt Q12809)
# Assay: primary screen, population patch clamp on CHO cells stably expressing hERG
# 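Further: peak tail current of the secondary pulse compared with the same well before compound.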
# human ether-à-go-go-related gene (hERG) potassium channel, sequence (Q12809 whole entry, looked up): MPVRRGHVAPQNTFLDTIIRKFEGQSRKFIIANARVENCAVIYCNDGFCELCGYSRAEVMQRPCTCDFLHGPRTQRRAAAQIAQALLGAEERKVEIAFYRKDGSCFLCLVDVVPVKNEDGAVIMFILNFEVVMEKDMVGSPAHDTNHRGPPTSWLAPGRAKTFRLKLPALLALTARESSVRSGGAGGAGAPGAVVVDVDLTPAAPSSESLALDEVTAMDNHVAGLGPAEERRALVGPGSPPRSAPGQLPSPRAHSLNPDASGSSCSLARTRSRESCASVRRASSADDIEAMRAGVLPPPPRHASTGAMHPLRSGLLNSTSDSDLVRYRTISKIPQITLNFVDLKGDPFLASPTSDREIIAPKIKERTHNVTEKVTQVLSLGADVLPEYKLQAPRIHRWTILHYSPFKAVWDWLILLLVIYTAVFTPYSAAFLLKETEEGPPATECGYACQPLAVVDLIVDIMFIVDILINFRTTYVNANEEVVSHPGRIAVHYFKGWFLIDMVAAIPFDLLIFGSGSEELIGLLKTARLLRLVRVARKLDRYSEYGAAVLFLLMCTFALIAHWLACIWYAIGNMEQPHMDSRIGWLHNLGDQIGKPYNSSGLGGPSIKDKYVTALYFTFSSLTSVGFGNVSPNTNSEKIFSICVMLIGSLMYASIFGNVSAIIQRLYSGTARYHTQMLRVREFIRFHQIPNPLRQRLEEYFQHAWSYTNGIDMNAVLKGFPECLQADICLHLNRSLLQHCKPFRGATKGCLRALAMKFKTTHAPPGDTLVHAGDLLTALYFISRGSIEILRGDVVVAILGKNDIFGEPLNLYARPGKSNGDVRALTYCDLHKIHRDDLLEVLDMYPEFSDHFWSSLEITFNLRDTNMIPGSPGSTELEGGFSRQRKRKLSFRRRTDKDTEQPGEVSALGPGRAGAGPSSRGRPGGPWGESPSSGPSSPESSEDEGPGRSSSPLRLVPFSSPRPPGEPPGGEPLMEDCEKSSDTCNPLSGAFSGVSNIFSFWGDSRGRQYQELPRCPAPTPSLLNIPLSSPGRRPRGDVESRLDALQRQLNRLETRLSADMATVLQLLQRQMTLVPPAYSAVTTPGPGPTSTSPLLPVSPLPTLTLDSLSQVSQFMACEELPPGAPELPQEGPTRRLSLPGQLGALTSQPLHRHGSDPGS
row,Structure (SMILES),"hERG current change (%, negative = inhibition) at 10uM"
1,Cc1c(Cc2ccccc2)sc(NC(=O)Cc2ccccc2)c1C(N)=O,12.8%
2,CC(C)c1cc(C(=O)NC2CCCc3c2cnn3-c2ccccc2F)no1 (stereo not shown),2.9%
3,COC(=O)c1cc(Br)c(=O)n(CCC2=CCCCC2)c1,-7.34%
4,CC(C)(C)NC(=O)c1ccc2c(c1)N(CC(=O)NC1CCCC1)C(=O)C(C)(C)O2,8.72%
5,Cc1ccc(S(=O)(=O)CC(c2ccccc2)N2CCOCC2)cc1 (stereo not shown),3.15%
6,CCCN(C(=O)c1cc(CC)c(C)s1)c1c(N)n(Cc2ccccc2)c(=O)[nH]c1=O,3.38%
7,CC(Oc1ccc(Cl)cc1Cl)C(=O)Nc1cccnc1 (stereo not shown),9.22%
8,CCc1ccc(NC(=O)C/C(C)=N/NC(=O)COc2ccc(C)cc2Br)cc1,-30.5%
9,CN1CCN(CC(O)COC(c2ccc(Cl)cc2)c2ccc(Cl)cc2)CC1.Cl (stereo not shown),-69.3%
10,CCOC(=O)N1CCN(C(=O)c2cccc(-n3c(=S)[nH]c4cc(Cl)ccc4c3=O)c2)CC1,2.3%
11,Cc1cccc(-n2c(-c3csc(C)c3C)n[nH]c2=S)c1,20.8%
12,COc1ccc(NC(=O)COC(=O)CNC(=O)c2cccs2)cc1Cl,3.29%
13,CN1CCN(S(=O)(=O)c2ccc(N(C)CC(=O)Nc3ccc(F)cc3)nc2)CC1,-4.31%
14,CN1C(=O)C(CC(=O)O)S/C1=N\N=C\c1ccc(O)cc1O (stereo not shown),6.03%
15,O=C(NC1CC1)c1cc2cc3ccccc3nc2s1,-3.76%
16,O=C(Nc1ccc(Cl)cc1)c1ccncc1,7.62%
17,Cc1cccc(C(=O)NC(=S)NNC(=O)c2cccs2)c1,17.2%
18,CCCN(CCC)S(=O)(=O)c1ccc(C(=O)N2CCCc3ccccc32)cc1,-14.3%
19,CCOc1cc(C(=O)OCC(=O)Nc2cc(C)on2)cc(OCC)c1OCC,2.29%
20,O=C(Nc1ccccc1)N1CCC(c2nc(-c3ccc(S(=O)(=O)N4CCOCC4)cc3)no2)CC1,-4.94%

row,Structure (SMILES),"hERG current change (%, negative = inhibition) at 10uM"
1,CCn1c(=O)c(=O)[nH]c2cc(C(=O)N(C)Cc3ccc(OC)c(F)c3)ccc21,10.4%
2,OC(CN1CCN(c2ccccc2F)CC1)c1ccc(F)cc1 (stereo not shown),-19.3%
3,Cl.OC(c1ccccc1)(c1ccccc1)C1CN2CCC1CC2 (stereo not shown),-45.2%
4,CN(C)/C=N/c1ncc(C(=O)c2ccc3ccccc3c2)s1,-36.3%
5,Cc1cc(/C=C(/C#N)c2nc3ccccc3[nH]2)c(C)n1-c1cccc([N+](=O)[O-])c1,17.8%
6,Cc1cccc(OCCCCCNCCO)c1,3.93%
7,CCOC(=O)Nc1nn(-c2ccc(C)cc2)c(=O)c(C#N)c1C,-18.7%
8,Cc1ccccc1Nc1nc(N)nc(CSc2nc3ccccc3c(=O)n2C)n1,10%
9,O=C(NNC(=O)c1ccccc1[N+](=O)[O-])c1ccccn1,4.6%
10,CC1(C)CN(c2ccccc2)N(Cc2ccc(F)cc2)C1=O,-12.7%
11,CCc1cc(C(=O)COc2ccc(F)cc2)c(O)cc1O,2.44%
12,COc1ccc(CNC(=O)C2=CC(c3ccc(OC)cc3)=NS(=O)(=O)N2C)cc1,-54.5%
13,CCCNc1nc2ccccc2c(=O)[nH]1,37.1%
14,NC(=O)NC(Cc1ccccc1)C(=O)NCC1(N2CCCCC2)CCCCC1 (stereo not shown),10.9%
15,C/C(=N/NC(=O)CNC(=O)c1cccs1)c1ccco1,11.7%
16,Cc1ccc2c(c1)C1CN(C)CCC1N2C(=O)Cn1nnc(-c2ccccc2F)n1 (stereo not shown),-60.1%
17,N#CC1(NC(=O)COC(=O)Cc2n[nH]c(=O)c3ccccc23)CCCCC1,6.73%
18,CCCc1cc(=O)[nH]c(SCC(=O)c2cc(C)n(CCC)c2C)n1,7.5%
19,COC(=O)NNC(=O)c1cccc(C)c1,-1.42%
20,Cc1ccc2[nH]c(=O)c3cc(C(=O)NC(C)C)sc3c2c1,9.76%

row,Structure (SMILES),"hERG current change (%, negative = inhibition) at 10uM"
1,CCCCCCCCCCCCCCCC(=O)OC(CC(=O)O)C[N+](C)(C)C.[Cl-] (stereo not shown),-14%
2,O=C(CCOc1ccccc1)Nc1ccccc1,12.1%
3,NC(=O)NC(=O)COC(=O)/C=C/c1cccc(Br)c1,8%
4,O=CN1CCN(C(=O)CN2C(=O)c3ccccc3C2=O)CC1,10.5%
5,O=C(O)c1cccc(N2C(=O)C3C4C=CC(C4=C(c4ccccc4)c4ccccc4)C3C2=O)c1 (stereo not shown),34.7%
6,CCO[C@H]1OC(C(=O)NCc2ccccc2)=C[C@@H](c2coc3ccccc3c2=O)[C@@H]1CCCO,-38.5%
7,CCOc1ccc(NC(=O)N2CCN(S(C)(=O)=O)CC2)cc1,-2.92%
8,CNC(=O)c1cc(C(=O)c2c(Cl)cccc2Cl)c[nH]1,-5.5%
9,NC1=NC[C@H](Cc2ccc(O)cc2)N1CCC12CC3CC(CC(C3)C1)C2,-3.6%
10,O=c1c(Cc2ccc(Cl)cc2Cl)c(O)ccn1Cc1ccc(Cl)cc1,-4.83%
11,O=C(CSc1ccc2nnc(-c3ccccn3)n2n1)Nc1ccc2c(c1)OCCO2,-40.6%
12,CCOc1ccc(N/C(C)=C/C(=O)c2ccc(C)o2)cc1,-42.7%
13,O=C(CN1C(=O)c2ccccc2S1(=O)=O)Nc1ncccn1,5.59%
14,CC(Cc1ccsc1)NCc1cn[nH]c1-c1ccc(F)cc1F (stereo not shown),-66.3%
15,COc1cc(S(=O)(=O)NCc2ccncc2)c(OC)cc1C,-4.37%
16,COC(=O)c1ccc(-c2noc(CN(Cc3nccn3C)C(C)C)n2)cc1,-37%
17,Cc1sc2nc(SCC(=O)NCc3ccco3)[nH]c(=O)c2c1C,10.5%
18,COc1cc(/C=C2\OC(=O)c3c(OC)cccc32)ccc1O,15.6%
